Read counts are not given, so values of variants with three or more changes are uncertain.
B1: LINE1-mini (parent)
chain: GGCAGAGCUCAACACAGCGUGGCAAAGUGGCUGUGGCUAGACUGCC

Variants of: B1
Assay: self-cleavage, relative activity (ratio to wild type); higher = more cleavage; in vitro, sequencing; the parent is a self-cleaving ribozyme

Variant | self-cleavage
GGCAGAGCUCAACACAUCAUGGCAAAGUGGGCGUGGCAAGACUGCC [G17U G19A C31G U32C U38A] | 0.12
GGCAGAGCUCAACACAGCGUGACAAACUGGCUGUGACCAGACUGCC [G22A G27C G36A U38C] | 0.08
GGCAGAGCUCAACACAGCGUGGCAAAGUGGCUGUGUCUAGACUUCA [G36U G44U C46A] | 0.02
GGCAGAGCUCAACGCAGCGUGGAAAAGUGACUGUGGCUAGACAGCC [A14G C23A G30A U43A] | 0.05
GGCAGAGCGCAACACAGCGUGACACAGUGGCUGUGGCCAGACUCCC [U9G G22A A25C U38C G44C] | 0.04
GGCUGAGCUCGACACAGCGUGGCAAAGUAGCUGUGGCUAGACUGCC [A4U A11G G29A] | 0.04
GCUAGAGCUCAACACAGGGUGGCAAAGUGGCUGUGGCUAGACUGCC [G2C C3U C18G] | 0.03
GGCAGAGCGCAACACAGCUUAGCAAAGUGGCUGUGGCUAGACUGCC [U9G G19U G21A] | 0.3
GGCAGAGCUCAACGCCGCGUGGAAAAGUGGUUGUGGCUAGACUGCC [A14G A16C C23A C31U] | 0.01
GUCAGAGCUAAACACAGCGUGGCAUAGUUGCUGUGGCUAGACUCCC [G2U C10A A25U G29U G44C] | 0.01
GGCAGAGCUCAACACAGCGUGGCAACGAGGGUGUGGCUAGACUGCC [A26C U28A C31G] | 0.06
GCCAGAGCUCAAGACAGCGAGGCAAAGUGGCUGUGGCUAGACUGCC [G2C C13G U20A] | 0.01
GGCAGAGCUCAACACAGCGUGGCAAAGCGGCUGUGGCAAGAGUGCC [U28C U38A C42G] | 0.01
GGCAGAGCUCAACUCAGCGUGGCAACGUGGCUGUGGCUAAACUGCC [A14U A26C G40A] | 0.01
GGCAGAGCUCAACACAGCGUGGCAAUGUGGCCGUGGCUAGAAUGCC [A26U U32C C42A] | 0.21
GUCAGAGCUUAACACAGCGUGGCAAGGUGGCUGUGGCUAGACUGCC [G2U C10U A26G] | 0.01
GGCAGAGCUCAACACAGCGUGGCAAAGUCGCUGUGACUAGACUGCU [G29C G36A C46U] | 0.09
GCCAGAGCUCAACACAGCGUGGCAAGGUGGCUGUGCCUAGACUGCA [G2C A26G G36C C46A] | 0.04
GGCAGAGCUCAACACAGCGUAGCAAAGUGGCUGUGGGUCGACCUCC [G21A C37G A39C U43C G44U] | 0.01

Variant | self-cleavage
GGCAGAUCUCAACUCAGCGUGGCAAAGUGGCAGUGGCUAGACUGCC [G7U A14U U32A] | 0.11
GGCAGAGCUCAAUACAGCGUGGCAAACUGUCCGUGGCUAGACUGCC [C13U G27C G30U U32C] | 0.07
GGCAGAGCUCACCAAAGCGUGGCAACGUGGCUGUGGCUAGACUGCG [A12C C15A A26C C46G] | 0.01
GGCAGAGCUCAAAACAGCGGCGCUAAGUGGCUGAGGCUAGACUGCC [C13A U20G G21C A24U U34A] | 0.04
GGCCGAGAUCAACACUGCGUGGCAAAGUGGCUGUGGCUAAACUGCC [A4C C8A A16U G40A] | 0.04
GGCAGAGCUCCACACAGGGUGGCAAAAUGGCUGUGGCUAGACUGCC [A11C C18G G27A] | 0.02
GGCAGAGCUCCACACUGCGGGGCAAAGUGGCUGUGGCUAGACUGCC [A11C A16U U20G] | 0.01
GGCAGAGCUCAACACAGCGCGGCAAAUUGGCUGUGGCUAAACUGCC [U20C G27U G40A] | 0.07
GGCAGAGCUCAACACAGCGUGGCAAAGUGGCUGUGCCUAGAUUGUC [G36C C42U C45U] | 0
GGCAGAGCUAAACACAGCGUGGAAAAGUGGCUAUGGCUAGAUUGCC [C10A C23A G33A C42U] | 0.05
GACAGAGCUCCACACAGCGUGGCAAAGUGACUGUAGCUAGAGUGCC [G2A A11C G30A G35A C42G] | 0.01
GGCAGAGCUCAAUACAGCGAAGCAAAGUGGCUGUGGCUAGACUGCC [C13U U20A G21A] | 0.11
CUCAGAGCUCAACACAGCGUAGCAAAGUGGCCGUGCCUAGACUGCC [G1C G2U G21A U32C G36C] | 0.03
GGCAGAGCUCAACACAGCUUGGCAAAGAGGCUAUUGCUAGACAGCG [G19U U28A G33A G35U U43A C46G] | 0.02
GGCAGAGCGCAACACAGCGUGGCAAAGAGGCGGUGGCUAGACUGCC [U9G U28A U32G] | 0.01
GGCAGAGCUCAACACAGCGUUGCAAAGUGUCUGUGGCCAGACUGCC [G21U G30U U38C] | 0.72
GGCAGUUCUCAACGCAGCGUGGCAAAGUGGCUGUGGCUAGACUGCC [A6U G7U A14G] | 0.09
GGCAGAGUUCAACACACCGCGGCAAAGUGGGUGUGGCUAGCCUGCC [C8U G17C U20C C31G A41C] | 0.01
GGCAGAGCUCAACACAGCGUCGCAAAGUAGGUGUAGCUAGACUGCC [G21C G29A C31G G35A] | 0.07

Variant | self-cleavage
GGCGAAGCUCAACACAGCGUGGCAAAGUGGCUGUGGCUAAACUGCC [A4G G5A G40A] | 0.17
GGCAGAGGUCAACACAGCGUGGCAACGUGGCUGAGGCUAGAGUGUC [C8G A26C U34A C42G C45U] | 0.05
GGGAUAGCUCAACACAGCGUUGCAAAGUGGCUUUGGCUAGACUGCC [C3G G5U G21U G33U] | 0.06
GGCGCAGCUCAACAGAGCGUGGCAAAGUAGAUGUGGCUAGACUGCC [A4G G5C C15G G29A C31A] | 0
GGCAGAGCACAACACAGCGUGGCAAAGUGGCUGUGACUAUACUGCC [U9A G36A G40U] | 0.33
GGCAGAGCUCUAGCCAGCGUGGCACAGUGGGUGUGGCUAGACUGCC [A11U C13G A14C A25C C31G] | 0
AGCAGAGCUCAACACAGCGUGACAAAAUGGCUGUGGCUAGACUGCC [G1A G22A G27A] | 0.13
GGCAGAGCUCAACACAGCAUCCCACAGUGGCUGUGGCUAGACUGCC [G19A G21C G22C A25C] | 0.08
CGCACAACUCAACACAGCGUGGCAAAGUGGCUUUGGCUAGACUGCC [G1C G5C G7A G33U] | 0
GGCAGAGCUCUACACAGCGUGGCGAAGUGGCUGUGGCUAGACUCCC [A11U A24G G44C] | 0.05
GGCAGAGCUCAACACAGCUAGGCAAAGUGCCUGUGGCUAGACUGCC [G19U U20A G30C] | 1.64
GGUAGAGCUCAACACAGCGUGGCAAAGAGGCUGGGGCUAGACUGCC [C3U U28A U34G] | 0.11
CGCAGAGCUCAACAAAGCGUGGCAAAGUGGCUGUGGAUGAACUGCC [G1C C15A C37A A39G G40A] | 0.01
GGCAGAGCACAACACAGCAUGGCAAAGUGGCUGUGGCUCUACUGGC [U9A G19A A39C G40U C45G] | 0.02
GGCAGAGCUCAACACAGCGUGGCAAAGUGCCUGUGGCACGACUGCC [G30C U38A A39C] | 0.08
GGCAGAGCUCAACACAGCGUGUCAAAGUGCCUGUAGCUAGACUGCC [G22U G30C G35A] | 0.22
GGCAGAGCUCAACACAGCGUGGCAAAGUGGUUCUGGCUAGACUGUC [C31U G33C C45U] | 0.02
GGCAGAGCUCAAGACAGUGUGGCACAGUGUCUGUGGCUAGACUGCC [C13G C18U A25C G30U] | 0.02

Reference: the RNAGym collection of RNA variant scans (doi:10.7554/elife.90254)
